Like-named read-outs stand apart in the source and are kept apart here.
System: B16 melanoma
[1] = mouse, in vivo, ip, 1 mg/kg/day
[2] = mouse, in vivo, ip, 2 mg/kg/day
[3] = mouse, in vivo, ip, 4 mg/kg/day
[4] = mouse, in vivo, ip, 8 mg/kg/day

Body wt. change on day 5 [1]	Body wt. change on day 5 [2]	Body wt. change on day 5 [3]	Body wt. change on day 5 [4] [g]	Compound	Body wt. change on day 5 (Table 6, 0.13 mg/kg/day ip, QD × 9)	Body wt. change on day 5 (mouse, in vivo, ip, 0.63 mg/kg/day)	Body wt. change on day 5 (mouse, in vivo, ip, 0.25 mg/kg/day)	Body wt. change on day 5 (mouse, in vivo, ip, 0.5 mg/kg/day)
+0.3 g	+1.0 g	+0.5 g	-2.0	C=C(C)CC(NC(=O)[C@H](COC(C)=O)NC(=O)CCCCC(C)C)C(=O)C1(COC(C)=O)CO1 (stereo partly drawn) [Diacetyl-BU-3862T]				
				CO[C@@]12[C@H](COC(N)=O)C3=C(C(=O)C(C)=C(N)C3=O)N1C[C@@H]1N[C@@H]12 [Mitomycin C, reference compound]			+0.3 g	+0.5 g
+0.5 g	+0.5 g	-0.5 g	-1.0	CC(C)CCCCC(=O)N[C@@H](CO)C(=O)NC(CC(C)C)C(=O)C1(CO)CO1 (stereo partly drawn) [Dihydro-BU-3862T]				

Compound	Body wt. change on day 5 [1]	Body wt. change on day 5 [2]	Body wt. change on day 5 [3]	Body wt. change on day 5 [4] [g]	Body wt. change on day 5 (Table 6, 0.13 mg/kg/day ip, QD × 9)	Body wt. change on day 5 (mouse, in vivo, ip, 0.63 mg/kg/day)	Body wt. change on day 5 (mouse, in vivo, ip, 0.25 mg/kg/day)	Body wt. change on day 5 (mouse, in vivo, ip, 0.5 mg/kg/day)
C=C(C)CC(NC(=O)[C@H](CO)NC(=O)CCCCC(C)C)C(=O)C1(CO)CO1 (stereo partly drawn) [BU-3862T]		-0.5 g	-1.3 g	-2.3	+0.8 g	+1.3 g		

Reference: patent US4912133A, “BU-3862T antitumor antibiotic” (priority 1988, dated 1990)
